Three substances from article PMC5520852 can be followed below.

By UniProt entry, the sequences of proteins in these tests, tags left out.
UniProt Q99JR8: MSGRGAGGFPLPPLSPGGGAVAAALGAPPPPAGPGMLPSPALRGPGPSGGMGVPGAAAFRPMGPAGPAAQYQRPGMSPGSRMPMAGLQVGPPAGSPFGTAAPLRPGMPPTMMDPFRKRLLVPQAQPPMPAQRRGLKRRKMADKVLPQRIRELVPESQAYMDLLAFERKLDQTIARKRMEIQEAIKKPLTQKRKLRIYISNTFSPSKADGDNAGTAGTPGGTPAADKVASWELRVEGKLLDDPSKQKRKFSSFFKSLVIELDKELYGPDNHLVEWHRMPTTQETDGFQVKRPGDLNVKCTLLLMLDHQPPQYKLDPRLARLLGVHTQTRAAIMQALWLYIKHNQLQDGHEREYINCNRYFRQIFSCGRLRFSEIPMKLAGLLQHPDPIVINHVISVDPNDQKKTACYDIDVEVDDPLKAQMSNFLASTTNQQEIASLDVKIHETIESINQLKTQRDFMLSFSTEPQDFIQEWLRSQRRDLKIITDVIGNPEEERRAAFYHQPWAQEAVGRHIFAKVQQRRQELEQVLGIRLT
UniProt Q3TKT4: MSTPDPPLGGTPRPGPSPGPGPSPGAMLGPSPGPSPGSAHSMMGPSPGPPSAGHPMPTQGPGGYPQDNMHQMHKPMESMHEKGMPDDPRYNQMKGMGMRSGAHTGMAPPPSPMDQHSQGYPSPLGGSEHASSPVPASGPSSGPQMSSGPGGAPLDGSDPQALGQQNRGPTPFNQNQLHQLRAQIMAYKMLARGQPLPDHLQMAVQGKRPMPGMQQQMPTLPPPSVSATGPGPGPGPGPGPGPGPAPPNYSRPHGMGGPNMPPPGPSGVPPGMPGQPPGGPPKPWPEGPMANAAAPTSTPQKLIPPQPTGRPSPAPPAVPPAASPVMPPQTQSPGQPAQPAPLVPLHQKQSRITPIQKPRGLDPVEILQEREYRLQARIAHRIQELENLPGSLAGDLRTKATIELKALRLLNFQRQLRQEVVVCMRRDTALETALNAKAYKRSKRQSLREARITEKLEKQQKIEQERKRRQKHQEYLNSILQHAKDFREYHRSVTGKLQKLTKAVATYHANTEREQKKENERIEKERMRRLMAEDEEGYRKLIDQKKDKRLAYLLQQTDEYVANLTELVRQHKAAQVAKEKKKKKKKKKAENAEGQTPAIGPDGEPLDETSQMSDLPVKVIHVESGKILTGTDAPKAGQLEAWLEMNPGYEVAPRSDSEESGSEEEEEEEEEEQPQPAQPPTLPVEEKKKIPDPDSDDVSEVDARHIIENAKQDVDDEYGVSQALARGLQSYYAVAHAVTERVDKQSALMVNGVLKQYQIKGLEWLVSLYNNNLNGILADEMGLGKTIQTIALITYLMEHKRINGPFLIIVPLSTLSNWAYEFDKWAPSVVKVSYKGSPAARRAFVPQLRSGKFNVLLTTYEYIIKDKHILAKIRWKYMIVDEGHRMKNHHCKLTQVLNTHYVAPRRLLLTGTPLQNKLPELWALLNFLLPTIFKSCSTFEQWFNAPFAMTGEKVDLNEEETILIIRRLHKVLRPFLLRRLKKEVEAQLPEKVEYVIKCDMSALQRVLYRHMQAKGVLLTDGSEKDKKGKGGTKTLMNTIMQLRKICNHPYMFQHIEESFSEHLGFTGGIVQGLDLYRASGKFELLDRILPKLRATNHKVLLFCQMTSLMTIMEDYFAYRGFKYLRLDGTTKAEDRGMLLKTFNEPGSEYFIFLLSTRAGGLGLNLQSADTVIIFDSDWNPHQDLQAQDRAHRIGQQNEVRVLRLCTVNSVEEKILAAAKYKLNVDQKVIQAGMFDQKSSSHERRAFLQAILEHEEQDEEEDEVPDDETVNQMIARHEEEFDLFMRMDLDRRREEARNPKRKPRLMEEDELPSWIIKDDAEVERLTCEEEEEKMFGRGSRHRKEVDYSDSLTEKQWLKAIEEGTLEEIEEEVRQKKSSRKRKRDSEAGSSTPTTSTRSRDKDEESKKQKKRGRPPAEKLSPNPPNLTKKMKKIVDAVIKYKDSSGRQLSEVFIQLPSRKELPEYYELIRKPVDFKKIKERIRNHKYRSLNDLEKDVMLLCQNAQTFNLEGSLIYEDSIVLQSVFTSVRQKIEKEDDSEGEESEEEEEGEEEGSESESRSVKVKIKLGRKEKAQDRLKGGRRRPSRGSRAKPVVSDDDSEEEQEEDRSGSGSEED
UniProt Q6P9Z1: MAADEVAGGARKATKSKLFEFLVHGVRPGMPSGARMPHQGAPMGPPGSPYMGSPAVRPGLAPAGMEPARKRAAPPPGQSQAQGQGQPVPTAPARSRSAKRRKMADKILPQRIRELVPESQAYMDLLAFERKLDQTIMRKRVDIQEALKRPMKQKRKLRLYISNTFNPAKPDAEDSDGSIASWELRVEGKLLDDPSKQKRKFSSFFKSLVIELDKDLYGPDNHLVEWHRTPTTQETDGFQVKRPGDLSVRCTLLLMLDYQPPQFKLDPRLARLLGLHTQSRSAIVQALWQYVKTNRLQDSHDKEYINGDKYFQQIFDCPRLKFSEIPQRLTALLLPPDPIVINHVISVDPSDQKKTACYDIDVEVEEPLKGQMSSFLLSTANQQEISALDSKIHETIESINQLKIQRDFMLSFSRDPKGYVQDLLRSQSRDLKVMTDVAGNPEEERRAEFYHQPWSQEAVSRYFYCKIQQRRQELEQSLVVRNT
UniProt Q61466: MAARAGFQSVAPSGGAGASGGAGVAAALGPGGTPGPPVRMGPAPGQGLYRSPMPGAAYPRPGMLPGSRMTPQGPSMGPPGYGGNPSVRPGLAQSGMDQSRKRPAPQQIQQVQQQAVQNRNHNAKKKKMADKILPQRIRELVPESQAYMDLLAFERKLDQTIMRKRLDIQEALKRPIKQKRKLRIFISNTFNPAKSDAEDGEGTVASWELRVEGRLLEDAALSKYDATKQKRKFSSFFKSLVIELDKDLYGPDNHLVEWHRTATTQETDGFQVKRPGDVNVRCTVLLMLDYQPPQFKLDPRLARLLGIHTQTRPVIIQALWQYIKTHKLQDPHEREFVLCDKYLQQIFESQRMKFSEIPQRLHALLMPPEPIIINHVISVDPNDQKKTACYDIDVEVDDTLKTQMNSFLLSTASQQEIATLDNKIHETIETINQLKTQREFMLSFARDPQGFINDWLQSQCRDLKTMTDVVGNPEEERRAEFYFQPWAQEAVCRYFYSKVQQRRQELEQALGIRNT

No constants are given. Whether binding was seen depends on the method and setting. Binding seen in cells or lysates may run through a third protein. Some entries that bind do so weakly or less than the wild type.

Assay [1] deals with HA-tagged Baf60b (full length) (UniProt Q99JR8). The experiment in a line: co-IP; nuclear lysates of TTFs transduced with HA-tagged Baf60b or a mutant, with or without 3TF; immunoprecipitated with an HA antibody or control IgG at 4 °C overnight, Protein G Dynabeads; lysis buffer 50 mM Tris-HCl pH 7.4, 150 mM NaCl, 1 mM EDTA, 1% Triton X-100, 0.1% NP40; immunoblot.
Assay [2] has as its target Brg1 (mouse (endogenous in TTFs)) (UniProt Q3TKT4). The experiment in a line: co-IP; Brg1-bound Baf60a and Baf60c in control and Baf60b-deficient cells (Supplementary Figure S13A); the precipitating antibody is not given.

Take Brg1 (from UniProt Q3TKT4 1-1613): the binding entry in assay [1] is on record as “binds”.
Take Baf60c (from UniProt Q6P9Z1 1-483): the values for the binding entry in assay [1] and in assay [2] were “no binding” and “binds”, respectively.
The matching figures for Baf60a (from UniProt Q61466 1-515): “no binding” and “binds”.
